Experimental data from PubChem BioAssay AID1347428 (National Center for Advancing Translational Sciences (NCATS), 2020).
Screen size: about 91,000 compounds; about 290 (0.32%) were called active. Inconclusive means that the source gave no clear call. Such entries were picked first, then a sample of the others. Calls follow the shape of the dose curve; as a rule, active = well fitted inhibition curve with a large enough effect; inconclusive = small, poorly fitted or top-dose-only effect; inactive = no such curve, though single readings can be large or run the other way. Potencies of inconclusive entries are doubtful fits and often do not repeat.

Each molecule was assayed against Single-stranded DNA cytosine deaminase (Homo sapiens) (UniProt Q9GZX7) (assay: Primary qHTS assay for inhibitors of Activation Induced Cytidine Deaminase (AID): AID signal). Conditions: AID deamination FRET fluorescence, UDG-coupled, 4 h; series mostly up to 115 µM.
Also: nearly all actives have a fitted effect of over 25% in size.
Potency is read from the fitted curve at half-maximal effect; tags tell the direction and shape of the fitted curve.

UniProt Q9GZX7, sequence (Q9GZX7 whole entry, looked up): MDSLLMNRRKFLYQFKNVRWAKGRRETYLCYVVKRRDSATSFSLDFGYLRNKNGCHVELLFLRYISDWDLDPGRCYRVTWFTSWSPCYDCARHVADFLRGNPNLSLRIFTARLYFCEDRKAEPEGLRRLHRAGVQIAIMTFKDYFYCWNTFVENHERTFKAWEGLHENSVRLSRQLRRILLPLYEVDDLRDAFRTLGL

SMILES	Potency
COc1cccc(CN(C(=O)c2oc3cc(C)ccc3c2C)C2CCS(=O)(=O)C2)c1 (centres undefined)	inconclusive: 3.98 µM [inhibitor, full curve, poor fit]
CCN(CC)CC(C)CNC(=O)c1cc(-c2ccc(Br)s2)nc2ccccc12 (centres undefined)	inconclusive: 50.1 µM [inhibitor, partial curve, poor fit]
COc1ccc(C)cc1NC(=O)c1ccc2c(SCC(=O)O)c3c(nc2c1)CCCC3	inconclusive: 56.2 µM [inhibitor, partial curve, poor fit]
CCCN1CCC(N(C)C(=O)Nc2ccc(F)cc2F)CC1	inactive
O=S(=O)(c1ccc2nc(NCc3ccccc3Cl)ccc2c1)N1CCCCC1	inconclusive: 10 µM [inhibitor, partial curve, poor fit]
CCN(Cc1ccccc1)C(=O)Cn1c(=O)n(-c2ccc(Cl)cc2)c(=O)c2c(C)c(C(=O)N(C)C)sc21	inconclusive: 89.1 µM [inhibitor, partial curve, poor fit]
Cc1ccc(CCNC(=O)CS(=O)Cc2nc(-c3ccccc3C)oc2C)cc1 (centres undefined)	inconclusive: 89.1 µM [inhibitor, partial curve, poor fit]
CC(=O)Nc1ccc(NC(=O)c2cc(-c3ccco3)nc3ccccc23)cc1	inactive
CN(C)CCCn1c(-c2cccc(OC(F)(F)C(F)F)c2)n[nH]c1=S	inactive
O=C(Nc1nonc1-c1ccc2c(c1)CCCC2)c1cc(=O)c2ccc(Br)cc2o1	active: 20 µM
COc1cccc(CNC(=O)c2oc3c(c2C)-c2nn(Cc4cccc(Cl)c4)cc2CC3)c1OC	active: 79.4 µM
CCc1cccc(NC(=O)Cn2c(=O)n(CC(=O)NCCc3ccccc3)c(=O)c3ccccc32)c1	inactive
CCc1ccc2c(c1)NC(c1ccc(C)o1)=NC(c1ccc(F)cc1)=N2	inactive
COc1ccc2cc(CN(C)C(=O)C3CCN(S(=O)(=O)c4ccccc4F)CC3)ccc2c1	inactive
COc1ccc(C(=O)N2CCC(C(=O)Nc3ccc(Cl)cc3)CC2)cc1	inconclusive: 25.1 µM [inhibitor, partial curve, poor fit]
Cc1c(CCNC(=O)c2ccco2)sc2nc(-c3ccc(F)cc3)nn12	inconclusive: 100 µM [inhibitor, partial curve, poor fit]
COc1ccc2[nH]c(=O)c(-c3noc(-c4cccs4)n3)cc2c1	inconclusive: 44.7 µM [inhibitor, partial curve, poor fit]
CC(C)CCNC(=O)Nc1ccc2c(c1)N(Cc1ccccc1)C(=O)c1ccccc1S2	inconclusive: 28.2 µM [inhibitor, partial curve, poor fit]
CC(C)c1ccc(CN(Cc2ccco2)c2cnc(S(C)(=O)=O)nc2C(=O)Nc2ccccc2)cc1	inconclusive: 14.1 µM [inhibitor, full curve]
Cc1cc(C(C)(C)C)cc(C)c1CS(=O)Cc1ccc(F)cc1 (centres undefined)	inactive

SMILES	Potency
COC(=O)c1ccn(-c2nc(-c3ccc(Cl)cc3)cc(C(F)(F)F)n2)n1	inconclusive: 28.2 µM [inhibitor, partial curve, poor fit]
COC(=O)C1=C(C)N(c2ccc(F)cc2)C(=O)CC1C(=O)Nc1ccc(C(C)=O)cc1 (centres undefined)	inactive
Cc1oc(-c2ccc(Cl)cc2)nc1CN1CCCC(C(=O)NCCc2ccccc2)C1 (centres undefined)	inconclusive: 50.1 µM [inhibitor, partial curve, poor fit]
N#Cc1ccc(C(=O)Nc2cc(-c3nc4ncccc4o3)ccc2Cl)c(F)c1	inconclusive: 89.1 µM [inhibitor, partial curve, poor fit]
C[C@]12C=CC(=O)C=C1CC[C@@H]1C2=CC[C@]2(C)[C@@H](C(=O)CN3CCN(c4cc(N5CCCC5)nc(N5CCCC5)n4)CC3)CC[C@@H]12	inconclusive: 39.8 µM [inhibitor, full curve]
CC(C)c1cnc2c(c1SCC(=O)c1ccccc1)c(=O)n(C)c(=O)n2C	inconclusive: 79.4 µM [inhibitor, single point]
CCc1c(C)sc(NC(=O)C(F)(F)C(F)(F)C(F)(F)F)c1C#N	inactive
O=C(Nc1cccc(Cl)c1)C1CCN(S(=O)(=O)Cc2ccccc2)CC1	inactive
CCCCOc1cccc(C(=O)N(Cc2ccc(Br)o2)C2CCS(=O)(=O)C2)c1 (centres undefined)	inconclusive: 56.2 µM [inhibitor, partial curve, poor fit]
Cc1cccc(C(=O)Nc2ccc(C(=O)OCc3cc(=O)n4c(C)csc4n3)cc2)c1	inconclusive: 100 µM [inhibitor, partial curve, poor fit]
Cc1ccc(C)n1-c1nnc(N2CCCC(C(=O)NCc3cccc(Br)c3)C2)s1 (centres undefined)	inconclusive: 89.1 µM [inhibitor, single point]
Cc1ccc(CC(=O)NCc2cccs2)cc1	inactive
COc1cccc(NC(=O)N(Cc2cn(C)c3ccccc23)C2CCCCCC2)c1	inconclusive: 3.55 µM [inhibitor, full curve, poor fit]
Cc1c(Cl)cccc1-n1nc(C)c2c(C)cc(=O)n(CC(=O)N3CCCc4ccccc43)c21	inconclusive: 39.8 µM [inhibitor, partial curve, poor fit]
CCc1ccc(NC(=O)Cn2c(=O)n(CCCC(=O)NCCc3ccc(OC)c(OC)c3)c(=O)c3ccccc32)cc1	inconclusive: 70.8 µM [inhibitor, single point]
Cc1ccccc1N1CC(c2nc3ccccc3n2Cc2ccc(Br)cc2)CC1=O (centres undefined)	inconclusive: 56.2 µM [inhibitor, partial curve, poor fit]
Cc1cc(Br)ccc1NC(=O)c1c(C)oc2ncnc(N3CCCCC3)c12	inconclusive: 79.4 µM [inhibitor, partial curve, poor fit]
COc1ccccc1NC(=O)Cn1c(=O)n(CC2CCC(C(=O)NCCc3ccccc3)CC2)c(=O)c2ccccc21 (centres undefined)	inconclusive: 100 µM [inhibitor, single point]
CC(C)CCC(CCNC1CCC(C)CC1)C1CCOC(C)(C)C1 (centres undefined)	inactive
